Consider 50 compounds from PubChem BioAssay AID493014 (National Center for Advancing Translational Sciences (NCATS), 2011).

Each structure is given as a SMILES string. Out of some 340,000 compounds screened, about 170 (0.05%) were called active. Another 26% or so got no clear call; they are omitted. Calls come from the whole dose curve; as a rule, active = well fitted inhibition curve with a large enough effect in the signal ratio, with a control signal flat (not every such curve was filed as active); inconclusive = small, poorly fitted or top-dose-only effect, or effect the other way, or a change in a side signal; inactive = flat fitted curve, though single readings scatter; the % refers to the signal ratio. The list shows a part of the results, in another mix than the full data.
Potency is the fitted concentration of half-maximal effect.

The nature of the test: qHTS Assay to Find Inhibitors of Chronic Active B-Cell Receptor Signaling.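 For activity change, negative = inhibition: plate controls were basal doxycycline-induced cells for no effect and cells given 10 µM MG132 for full effect.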 To be noted: ABC-DLBCL IkBa-CBG/CBR reporter, luminescence ratio (green luciferase fused to IkBa over red control in TMD8 lymphoma cells), 4 h; series mostly up to 46.1 µM; activity change, negative = inhibition: at the top concentration. In short, it runs like this:
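Doxycycline induced both beetle luciferases in TMD8 lymphoma cells; IKK-driven degradation limits the IkappaBalpha-fused green signal, while red luminescence normalises for cell number and nonspecific effects. Compounds tested up to 46 uM, 4 hrs.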
Background: In qHTS, concentration-response curves come from the screen itself.
Take `CC(C)[N+]1(C)[C@@H]2CC[C@H]1CC(OC(=O)C(CO)c1ccccc1)C2` (stereo not given in full): the Potency entry is “inactive”.

As for `N#CC1(C#N)C(C(=O)C23CC4CC(CC(C4)C2)C3)C12CCOCC2` (stereo not given), the “activity change, negative = inhibition” value was inactive: 2.39%.

On to `CCc1nnc(NS(=O)(=O)c2ccc(N/C=C\C(=O)c3ccc(C)cc3)cc2)s1`, for which the “activity change, negative = inhibition” value is inactive: 14.2%.

`O=C(N[C@@H]1C/C=C\C[C@H](CC(=O)N(CCO)Cc2ccccc2)C(=O)NC[C@@H](c2ccccc2)OC1=O)OCC1c2ccccc2-c2ccccc21`: the “activity change, negative = inhibition” value was inactive: -0.708%.

With `Cc1ccc(C(=O)c2cc([N+](=O)[O-])ccc2N2CCCCC2)cc1`, the Potency is active: 23.1 µM.

Take `OCC[C@H]1C[C@@H](O)[C@H](O)[C@]2(OCc3ccccc32)O1`: the “activity change, negative = inhibition” value is inactive: 8.03%.

`C=CC[C@@H](CC(=O)N(CCO)Cc1ccccc1)C(=O)NCCOC(=O)[C@H](CC=C)CC(=O)OC(C)(C)C`: the “activity change, negative = inhibition” value is inactive: 0.122%.

`COC(=O)C1=C(C)N(Cc2ccccc2)C(=NCCc2cccnc2)N[C@H]1c1ccccc1`: the “activity change, negative = inhibition” value was inactive: 15.6%.

With `CC(C)NC(=O)/C(C#N)=C/c1ccc(N(C)C)o1`, the “activity change, negative = inhibition” value is inactive: -21%.

As for `CCOC(=O)[C@@H]1[C@H]2COc3ccccc3[C@H]2N2C(=O)N(c3ccc(Cl)cc3)C(=O)[C@@]12C`, the “activity change, negative = inhibition” value was inactive: -2%.

As for `C[C@H]1O[C@@H](O[C@H]2[C@@H](O)C[C@H](O[C@H]3[C@@H](O)C[C@H](O[C@H]4CC[C@@]5(C)[C@H](CC[C@@H]6[C@@H]5C[C@@H](O)[C@]5(C)[C@@H](C7=CC(=O)OC7)CC[C@]65O)C4)O[C@@H]3C)O[C@@H]2C)C[C@H](O)[C@@H]1O`, the “activity change, negative = inhibition” value was inactive: -13.8%.

`C=CCOC(=O)C1=C[C@H](c2coc3ccccc3c2=O)C[C@H](OCc2ccc(CO)cc2)O1`: the “activity change, negative = inhibition” value was inactive: -1.96%.

Consider `CC(C)(C)OC(=O)C[C@@H]1C/C=C\C[C@H](CC(=O)N[C@H](CO)Cc2ccccc2)C(=O)N[C@H](C(C)(C)C)COC1=O`, for which the “activity change, negative = inhibition” value is inactive: 2.22%.

Turning to `CCc1ccccc1NC(=S)N=Nc1c(O)n(C)c2ccc(S(=O)(=O)N3CCOCC3)cc12`, the Potency is active: 18.4 µM.

In the case of `Cc1nc2ccccc2n2c(-c3ccccc3)c3c(=O)n(C)c(=O)n(C)c3c12`, the “activity change, negative = inhibition” value is inactive: -1.31%.

Regarding `Cc1cccc(Cn2c(=O)n(-c3ccc(CC(=O)NCc4ccco4)cc3)c(=O)c3sccc32)c1`, the Potency was active: 5.01 µM.

Turning to `Cc1ccc(C(=O)N/C(=C/c2ccccc2)C(=O)NCc2ccncc2)cc1`, the “activity change, negative = inhibition” value is inactive: 4.95%.

Turning to `O=C(C[C@H]1C/C=C\C[C@H](NC(=O)OCC2c3ccccc3-c3ccccc32)C(=O)OC[C@@H]2CCCN2C1=O)N[C@H](CO)Cc1ccccc1`, the “activity change, negative = inhibition” value was inactive: 0.155%.

On to `COC(C[C@@H]1O[C@@H]1[C@H](O)[C@@H](C)OCc1ccccc1)OC`, for which the “activity change, negative = inhibition” value is inactive: 0.402%.

In the case of `CC(C)(C)OC(=O)C[C@H]1C/C=C\C[C@@H](CC(=O)N[C@@H](CO)Cc2ccccc2)C(=O)N2CCC[C@H]2COC1=O`, the “activity change, negative = inhibition” value is inactive: 1.04%.

In the case of `Cc1ccsc1/C=C1/SC(N2CC(C)OC(C)C2)=NC1=O` (stereo not given), the “activity change, negative = inhibition” value was inactive: -4.55%.

Turning to `COc1ccc(NC(=O)CN2C(=O)c3ccccc3Sc3ccc(C(=O)N4CCOCC4)cc32)c(OC)c1`, the “activity change, negative = inhibition” value is inactive: -1.74%.

Take `Cc1ccc2c(c1C)NC(C(=O)O)C1CC=CC21` (stereo not given): the “activity change, negative = inhibition” value was inactive: 19.8%.

As for `C=CC[C@H](CC(=O)N(CCO)Cc1ccccc1)C(=O)NC[C@H](OC(=O)[C@@H](CC=C)CC(=O)OC(C)(C)C)c1ccccc1`, the “activity change, negative = inhibition” value is inactive: -0.575%.

On to `NC(=O)C1CCN(c2nc(-c3cccnc3)cs2)CC1`, for which the “activity change, negative = inhibition” value was inactive: -2.04%.

Turning to `C=CCC[C@H](Cc1ccc(F)cc1)C(=O)OC[C@H](Cc1c[nH]c2ccccc12)NC(=O)[C@@H](CC=C)CC(=O)NCCO`, the “activity change, negative = inhibition” value was inactive: -6.36%.

With `CC1=C(CC(=O)O)c2cc(F)ccc2/C1=C/c1ccc(S(C)=O)cc1` (stereo not given), the “activity change, negative = inhibition” value is inactive: -4.54%.

For the compound `COC(=O)C1=C(C)N(CC2CC2)C(=NCc2cccc(Cl)c2)N[C@H]1c1ccccc1`, the “activity change, negative = inhibition” value was inactive: -1.44%.

As for `O=C(O)C(Cc1c[nH]c2ccccc12)N1C(=O)C2C3c4ccccc4C(c4ccccc43)[C@@H]2C1=O` (stereo not given in full), the “activity change, negative = inhibition” value is inactive: -1.25%.

On to `NC(=S)n1[nH]c(-c2ccc([N+](=O)[O-])cc2)c(N=Nc2ccc(Cl)cc2)c1=O`, for which the Potency is active: 10 µM.

As to `C=CCC[C@H](Cc1ccc(F)cc1)C(=O)OC[C@H](Cc1c[nH]c2ccccc12)NC(=O)[C@H](CC=C)CC(=O)NCCO`, the “activity change, negative = inhibition” value was inactive: -2.42%.

On to `C[C@H](CO)N1C[C@H](C)[C@@H](CN(C)C(=O)Nc2ccccc2)Oc2ccc(NC(=O)CCN3CCOCC3)cc2C1=O`, for which the “activity change, negative = inhibition” value is inactive: -0.51%.

On to `O=C1OC[C@@H]2CCCN2C(=O)[C@H](CC(=O)N(CCO)Cc2ccccc2)C/C=C\CC[C@H]1Cc1ccc(F)cc1`, for which the “activity change, negative = inhibition” value is inactive: 1.91%.

For `CCOC(=O)c1c(S(=O)(=O)N2CCCC(C(=O)Nc3ncccc3C)C2)c(C)n(C)c1C` (stereo not given), the “activity change, negative = inhibition” value was inactive: 11.9%.

Take `CCOC(=O)C1=C(C)N=C2SCCC(=O)N2[C@@H]1c1cccs1`: the “activity change, negative = inhibition” value was inactive: 9.36%.

Take `CCC1CCCCN1CCCNC(=O)CN1C(=O)CSc2ccc(S(=O)(=O)N3CCC(C)CC3)cc21` (stereo not given): the “activity change, negative = inhibition” value was inactive: -2.84%.

As for `O=C1N[C@@H](Cc2c[nH]c3ccccc23)COC(=O)[C@H](Cc2ccc(F)cc2)C/C=C\C[C@@H]1CC(=O)N(CCO)Cc1ccccc1`, the “activity change, negative = inhibition” value was inactive: -3.2%.

`OCC[C@H]1C[C@H](O)[C@@H](O)[C@@]2(CCc3ccccc3CO2)O1`: the “activity change, negative = inhibition” value was inactive: -1.87%.

For `c1cnc(N2CCN(Cc3ccc4c(c3)OCO4)CC2)nc1`, the Potency result is “inactive”.

Regarding `CN1CCN(C(=O)C2=C[C@H](c3ccc4c(c3)OCO4)C[C@H](OCc3ccc(CO)cc3)O2)CC1`, the “activity change, negative = inhibition” value was inactive: 1.52%.

Turning to `COCCCNC(=O)c1ccc2c(c1)nc(C)n2-c1cccc(C)c1`, the “activity change, negative = inhibition” value was inactive: -14.6%.

Take `CN(C)c1ccnc2c[cH-]cc12.[Fe].c1ccc(-[c-]2[c-](-c3ccccc3)[c-](-c3ccccc3)[c-](-c3ccccc3)[c-]2-c2ccccc2)cc1` (stereo not given): the “activity change, negative = inhibition” value was inactive: -2.37%.

For `O=C(NCCO)/C(=C\c1cccc([N+](=O)[O-])c1)NC(=O)c1ccco1`, the “activity change, negative = inhibition” value is inactive: -0.321%.

Consider `Oc1cc(-c2ccncc2)cc2cccnc12`, for which the “activity change, negative = inhibition” value is inactive: -13.2%.

As for `COc1ccc2c(c1)c(/C=N/Nc1nc3ccccc3[nH]1)c(C)n2C`, the Potency is active: 15.8 µM.

With `CCO[C@H]1OC(C(N)=O)=C[C@@H](C2CCCCC2)[C@@H]1CCCO`, the “activity change, negative = inhibition” value was inactive: -12.1%.

As to `CC(=O)C[C@@H](O)CC(=O)[C@@H]1OC(=O)CCCCCCCCc2ccccc21`, the “activity change, negative = inhibition” value is inactive: -0.321%.

Turning to `O=C(NCCCn1ccnc1)/C(=C\c1cccs1)NC(=O)c1ccco1`, the “activity change, negative = inhibition” value was inactive: 2.08%.

Consider `C=CC[C@H](CC(=O)N(CCO)Cc1ccccc1)C(=O)N[C@@H](C)COC(=O)[C@@H](CC=C)Cc1ccc(F)cc1`, for which the “activity change, negative = inhibition” value is inactive: -1.12%.

For `Cc1ccc(C(=O)NN2C(=O)C3C4C=CC([C@@H]3C2=O)C42CC2)cc1` (stereo not given in full), the “activity change, negative = inhibition” value is inactive: -1.81%.
